This note sets out measurements from paper PMC12820563, “FoxP3 forms a head-to-head dimer in vivo and stabilizes its multimerization on adjacent microsatellites”.

Some of the results follow.

This assay addresses T1, MBP-FoxP1dN (Mus musculus, UniProt P58462 326-579).
T1 sequence: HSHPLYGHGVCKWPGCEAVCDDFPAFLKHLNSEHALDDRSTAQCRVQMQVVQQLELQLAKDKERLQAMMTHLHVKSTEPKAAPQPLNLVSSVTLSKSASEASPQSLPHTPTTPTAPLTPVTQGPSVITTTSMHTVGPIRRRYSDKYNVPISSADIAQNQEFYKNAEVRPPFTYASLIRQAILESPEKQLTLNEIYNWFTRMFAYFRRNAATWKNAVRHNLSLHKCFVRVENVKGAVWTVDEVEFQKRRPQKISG
Put plainly: PD-seq (MBP pull-down with sequencing); 20 mM Tris-HCl pH 7.5, 100 mM NaCl, 1.5 mM MgCl2, 0.4 uM protein, 0.1 uM dsDNA library, 30 min, room temperature, amylose pull-down; high values mean tight binding. The settings on record: protein: recombinant; tags: His6-MBP; chain copies: 2; dsDNA, one strand shown. The procedure, abridged:
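Binding is reads-per-million enrichment of pull-down over input, with replicates pooled. It comes from 30 min room-temperature incubation in Tris pH 7.5 buffer with NaCl and MgCl2 of 0.4 µM His6-MBP-tagged, N-terminally truncated mouse FoxP3 or FoxP1 fragment from E. coli with 0.1 µM Klenow-filled degenerate double-stranded DNA library, followed by amylose resin capture, three washes and Illumina sequencing of the released DNA.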
Turning to “GATGATTGTTCTCCCAGCTGATGAATTGATACTCTCGAGTAAACAAATTTTCCTAATCTTTCTGTTCAAGCGCCATCTAC”, the binding signal was 1.05 RPM ratio (pull-down/input).
With “GATGATTGTTCTCCCAGCTGATGAATTTACCGTATCGAGTAAACAAATTTTCCTAATCTTTCTGTTCAAGCGCCATCTAC” the figure was 1.2 RPM ratio (pull-down/input); with “GATGATTGTTCTCCCAGCTGATGAATTCCCACTATCGAGTAAACAAATTTTCCTAATCTTTCTGTTCAAGCGCCATCTAC”, 0.861 RPM ratio (pull-down/input); with “GATGATTGTTCTCCCAGCTGATGAATTCATCTTTTCGAGTAAACAAATTTTCCTAATCTTTCTGTTCAAGCGCCATCTAC”, 0.966 RPM ratio (pull-down/input).
With “GATGATTGTTCTCCCAGCTGATGAATTCCGAGAATCGAGTAAACAAATTTTCCTAATCTTTCTGTTCAAGCGCCATCTAC” the figure was 0.869 RPM ratio (pull-down/input).
Take “GATGATTGTTCTCCCAGCTGATGAATTTCTGTCCTCGAGTAAACAAATTTTCCTAATCTTTCTGTTCAAGCGCCATCTAC”: the binding signal was 0.915 RPM ratio (pull-down/input).
With “GATGATTGTTCTCCCAGCTGATGAATTGTAAGGGTCGAGTAAACAAATTTTCCTAATCTTTCTGTTCAAGCGCCATCTAC” the figure was 0.872 RPM ratio (pull-down/input); with “GATGATTGTTCTCCCAGCTGATGAATTAGGTGGTTCGAGTAAACAAATTTTCCTAATCTTTCTGTTCAAGCGCCATCTAC”, 0.892 RPM ratio (pull-down/input).
Turning to “GATGATTGTTCTCCCAGCTGATGAATTGTGGGCTTCGAGTAAACAAATTTTCCTAATCTTTCTGTTCAAGCGCCATCTAC”, the binding signal is 0.932 RPM ratio (pull-down/input).
On to “GATGATTGTTCTCCCAGCTGATGAATTAAGAATGTCGAGTAAACAAATTTTCCTAATCTTTCTGTTCAAGCGCCATCTAC”, for which the binding signal is 0.79 RPM ratio (pull-down/input).
For the sequence “GATGATTGTTCTCCCAGCTGATGAATTCCGTCGCTCGAGTAAACAAATTTTCCTAATCTTTCTGTTCAAGCGCCATCTAC”, the binding signal is 0.805 RPM ratio (pull-down/input).
Turning to “GATGATTGTTCTCCCAGCTGATGAATTTGTCGCCTCGAGTAAACAAATTTTCCTAATCTTTCTGTTCAAGCGCCATCTAC”, the binding signal is 1.05 RPM ratio (pull-down/input).
Consider “GATGATTGTTCTCCCAGCTGATGAATTTGCAGGGTCGAGTAAACAAATTTTCCTAATCTTTCTGTTCAAGCGCCATCTAC”, for which the binding signal was 0.861 RPM ratio (pull-down/input).
Regarding “GATGATTGTTCTCCCAGCTGATGAATTTAGCGAGTCGAGTAAACAAATTTTCCTAATCTTTCTGTTCAAGCGCCATCTAC”, the binding signal was 0.922 RPM ratio (pull-down/input).
With “GATGATTGTTCTCCCAGCTGATGAATTACTTACCTCGAGTAAACAAATTTTCCTAATCTTTCTGTTCAAGCGCCATCTAC”, the binding signal is 1.04 RPM ratio (pull-down/input).
The same measure for “GATGATTGTTCTCCCAGCTGATGAATTTATGCCGTCGAGTAAACAAATTTTCCTAATCTTTCTGTTCAAGCGCCATCTAC”: 1.12 RPM ratio (pull-down/input).
The same measure for “GATGATTGTTCTCCCAGCTGATGAATTTGGCTCTTCGAGTAAACAAATTTTCCTAATCTTTCTGTTCAAGCGCCATCTAC”: 0.858 RPM ratio (pull-down/input).
“GATGATTGTTCTCCCAGCTGATGAATTCCTTCAATCGAGTAAACAAATTTTCCTAATCTTTCTGTTCAAGCGCCATCTAC”: the binding signal was 0.917 RPM ratio (pull-down/input).
